Here are results for 30 compounds from PubChem BioAssay AID1745853 (National Center for Advancing Translational Sciences (NCATS), 2022).

The structures appear in SMILES notation. “And” between values parts separate entries of the source, which are not always exact repeats. Equal values may be shown once. The list shows a part of the results. The main result of the screen is listed elsewhere. These columns were measured beside it and carry no call.

Holding throughout (assay): Primary Screen for Target Class Profiling of Small Molecule Inhibitors of Methyltransferases
Test [1] has as its target Glycine N-methyltransferase (Homo sapiens) (UniProt Q14749). Particulars: purified enzyme, MTase-Glo SAH luminescence; measured here: GNMT inhibition; at 40 µM; stronger effect = lower value. Put shortly: (§1)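 Each enzyme was reacted with SAM and its substrate, with compounds tested once at 40 uM; SAH formed was read by MTase-Glo luminescence.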
Test [2] has as its target Guanidinoacetate N-methyltransferase (Homo sapiens) (UniProt Q14353). Particulars: purified enzyme, MTase-Glo SAH luminescence; measured here: GAMT inhibition; at 40 µM; stronger effect = lower value. Put shortly:
as §1

In test [3] the target is Histamine N-methyltransferase (Homo sapiens) (UniProt P50135). Particulars: purified enzyme, MTase-Glo SAH luminescence; measured here: HNMT inhibition; at 40 µM; stronger effect = lower value. Put shortly:
as §1

Test [4] deals with Nicotinamide N-methyltransferase (Homo sapiens) (UniProt P40261). Particulars: purified enzyme, MTase-Glo SAH luminescence; measured here: NNMT inhibition; at 40 µM; stronger effect = lower value. The method, boiled down: as §1
The target of test [5] is Phenylethanolamine N-methyltransferase (Homo sapiens) (UniProt P11086). Particulars: purified enzyme, MTase-Glo SAH luminescence; measured here: PNMT inhibition; at 40 µM; stronger effect = lower value. The method, boiled down:
as §1
On the % scale 0 is the no-effect control and ±100 the full control effect.

`CCOC(=O)C1CCN(C(=O)C2CCc3nnc(CN[S+](C)(=O)[O-])n32)CC1` (stereo not given): the activity change, negative = inhibition in test [1] was 0.378%; in test [2], -1.17%; in test [3] it was 2.12%; in test [4], 1.51%; in test [5], -1.39%.
Turning to `CCCCN1C(=O)c2cc(C(=O)NCc3ccc(F)cc3)nn2CC1(C)C(=O)NC1CCCC1` (stereo not given), the activity change, negative = inhibition in test [1] stood at 2.6%; in test [2] it was 0%; in test [3], 2.71%; in test [4], 0.129%; in test [5] it was 1.6%.
In the same order, the values of `C#CCN(C)C(=O)C[C@@H]1c2nc(NC(=O)CCCCC)sc2C[C@@H]2[C@](C)(CO)[C@H](O)CC[C@]21C` are -3.71%, -3.86%, -4.07%, -6.25% and -5.07%.
With `C/C=C(/C=C(C)/C=C/C=C/C=C(\C)C(=O)C12OC1C(O)(CCO)NC2=O)C(=O)OC` (stereo not given), the activity change, negative = inhibition in test [1] was -4.08%; in test [2] it was 3.87%; in test [3], 1.29%; in test [4], -8.99%; in test [5] it was 1.46%.
In the same order, the values of `CC(C)Cn1c(=O)c2ccccc2n2c(CCC(=O)N3CCN(C(c4ccccc4)c4ccccc4)CC3)nnc12` are -9.03%, 0.964%, 9.06%, -17.9% and 0.792%.
In the same order, the values of `CCOC(=O)Cn1c(=O)oc2cc(S(=O)(=O)NCCc3ccc(OCC)c(OCC)c3)ccc21` are -4.62%, 3.21%, -1.77%, 5.18% and -6.95%.
Turning to `CN(CCN1C(=O)c2cc3occc3n2CC1(C)C(=O)NC1CCCCCCC1)C1CCCCC1` (stereo not given), the activity change, negative = inhibition in test [1] was 1.02%; in test [2], 0.241%; in test [3] it was -1.25%; in test [4], 19.4%; in test [5] it was -2.91%.
With `CCCn1c(=O)c2ccc(C(=O)NC(C)C)cc2n2c(SCC(=O)NC(C)(C)C)nnc12`, the activity change, negative = inhibition in test [1] is 1.53%; in test [2] it was 2.66%; in test [3], 7.87%; in test [4] it was -4.17%; in test [5] it was 1.21%.
Take `CNc1ccc([N+](=O)[O-])c(Nc2ccc3[nH]ncc3c2)n1`: the activity change, negative = inhibition is -10.8% in test [1]; -1.2% in test [2]; 4.16% in test [3]; -18.9% in test [4]; -6.06% in test [5].
For the compound `O=S(=O)(c1ccccc1)c1nnn2c1nc(NC1CCCCC1)c1cc(Cl)ccc12`, the activity change, negative = inhibition in test [1] is -1.65%; in test [2] it was 0%; in test [3], 3.35%; in test [4] it was 1.7%; in test [5], -2.88%.
`CC(C(=O)NCc1ccc2c(c1)OCO2)n1ccc2cc(S(=O)(=O)N3CCCC3)ccc21` (stereo not given): the activity change, negative = inhibition in test [1] is -0.048%; in test [2], 4.47%; in test [3], 2%; in test [4], -6.6%; in test [5], 0.986%.
`c1ccc(-c2[nH]nc3ncc(-c4cn[nH]c4)nc23)cc1`: the activity change, negative = inhibition in test [1] was -80%; in test [2], -34.3%; in test [3] it was -46%; in test [4], -58.7%; in test [5] it was -34.1%.
As to `O=C(NCCc1ccc(Cl)cc1)C1CCc2nnc(CN[S+](=O)([O-])c3ccccc3Cl)n21` (stereo not given), the activity change, negative = inhibition is -1.72% in test [1]; -1.73% in test [2]; -3.22% in test [3]; -0.669% in test [4]; 4.08% in test [5].
Turning to `CC1(C(=O)NC2CCCC2)Cn2c(cc3ccccc32)C(=O)N1CCc1cccs1` (stereo not given), the activity change, negative = inhibition came to 1.32% in test [1]; 0% in test [2]; 2.28% in test [3]; 2.98% in test [4]; 0.943% in test [5].
`CC(Cc1ccncc1)Nc1nccc(-c2cnn(-c3ccccc3)c2)n1` (stereo not given): the activity change, negative = inhibition was -33.7% in test [1]; -9.9% in test [2]; -21.1% in test [3]; -20.9% in test [4]; -4.36% in test [5].
Take `O=C(Nc1ccc(N2C(=O)[C@@H]3[C@H](C2=O)[C@@H]2C=C[C@H]3C2)c(Cl)c1)c1ccccn1`: the activity change, negative = inhibition was -8.83% in test [1]; 0.766% in test [2]; -6.03% in test [3]; -21.6% in test [4]; -15.9% in test [5].
For `CC(C)CCn1c(=O)c2ccc(C(=O)NCC(C)C)cc2n2c(=O)n(Cc3ccccc3Cl)nc12`, the activity change, negative = inhibition in test [1] was 6.64%; in test [2] it was 0%; in test [3] it was 6.62%; in test [4], -0.024%; in test [5], 3.68%.
In the same order, the values of `CCCC(=O)NCCc1csc(-c2ccc(Cl)cc2)n1` are -11.9%, -5.64%, 4.42%, -20.7% and -10.1%.
Consider `COC(=O)c1ncn2c1C(=O)N(CCC1=CCCCC1)C(C)(C(=O)NC1CCCCCC1)C2` (stereo not given), for which the activity change, negative = inhibition in test [1] was 1.28%; in test [2], 5.52%; in test [3], -1.33%; in test [4] it was 0.635%; in test [5] it was 2%.
For `O=C(Nc1ccccc1)N1CCN(c2nc(-c3ccccc3)ns2)CC1`, the activity change, negative = inhibition in test [1] is -3.22%; in test [2], 1.7%; in test [3] it was 11.1%; in test [4], -15.6%; in test [5], -1.73%.
As for `COc1ccccc1CNC(=O)C1(C)Cn2nc(-c3ccccc3)cc2C(=O)N1c1ccc2c(c1)OCO2` (stereo not given), the activity change, negative = inhibition was 2.77% in test [1]; 2.73% in test [2]; 6.76% in test [3]; -3.45% in test [4]; 0.704% in test [5].
Take `CC(C)CCn1c(=O)c2ccccc2n2c(CCC(=O)N3CCN(c4ccccc4F)CC3)nnc12`: the activity change, negative = inhibition in test [1] was -13.2%; in test [2], 4.25%; in test [3], -10.1%; in test [4], -41%; in test [5], -9.22%.
Take `COC(=O)c1ncn2c1C(=O)N(CCCOC(C)C)C(C)(C(=O)NC1CCCCCC1)C2` (stereo not given): the activity change, negative = inhibition is 8.59% in test [1]; 0% in test [2]; 6.26% in test [3]; 8.05% in test [4]; 4.93% in test [5].
In the same order, the values of `CCC(C)NC(=O)c1ccc2c(=O)n(C)c3nnc(SCC(=O)NC(C)C)n3c2c1` (stereo not given) are 3.04%, -4.92%, 7.55%, -0.739% and -4.63%.
As for `Cn1nc(C(C)(C)C)cc1C(=O)N[C@@H](Cc1cccc(Cl)c1)C(=O)NCC#N`, the activity change, negative = inhibition in test [1] was 6.76%; in test [2] it was 8.46% and 3.93%; in test [3], 9.18%; in test [4], -5.21% and -12.9%; in test [5] it was 5.18% and -0.158%.
For the compound `CCC(C)NC(=O)c1ccc2c(=O)n(C)c3nnc(SCc4ccccc4C)n3c2c1` (stereo not given), the activity change, negative = inhibition is 6.88% in test [1]; 4.03% in test [2]; 6.3% in test [3]; 4% in test [4]; 4.04% in test [5].
As for `CC(C)Cc1ccc(S(=O)(=O)NCCn2c(CCc3ccccc3)nc3ccccc32)cc1`, the activity change, negative = inhibition in test [1] is -2.47%; in test [2], 0.007%; in test [3], -6.89%; in test [4], -6.85%; in test [5] it was -1.97%.
Consider `CC(=O)Nc1ccc(Nc2nc3c(S(=O)(=O)c4cc(C)ccc4C)nnn3c3ccccc23)cc1`, for which the activity change, negative = inhibition in test [1] was -3.81%; in test [2] it was 3.6%; in test [3], -2.09%; in test [4] it was 11.5%; in test [5] it was -1.35%.
Regarding `O=C(O)c1cccc(C(=O)CCC2OC(n3cnc4c(=O)[nH]cnc43)C(O)C2O)c1` (stereo not given), the activity change, negative = inhibition in test [1] was -0.964%; in test [2], 2.97%; in test [3], 2.55%; in test [4], -7.72%; in test [5], 4.66%.
In the same order, the values of `CC1CCCCC1NC(=O)C1(C)Cn2c(nc3ccccc32)C(=O)N1CCc1ccccc1` (stereo not given) are 3.47%, 0%, 6.28%, 2.91% and 1.25%.
